The RNAGym collection of RNA variant scans (doi:10.1093/nar/gkz1192)
Read counts are not given, so values of variants with three or more changes are uncertain.

B1: CPEB3 Ribozyme (parent)
chain: UAACAGGGGGCCACAGCAGAAGCGUUCACGUCGCAGCCCCUGUCAGAUUCUGGUGAAUCUGCGAAUUCUGCUGUAUAUCUC

Variants of: B1
Assay: self-cleavage, relative activity (ratio to wild type); higher = more cleavage; in vitro, sequencing
Summary of the method: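 After error-prone PCR and barcoding, CPEB3 ribozyme mutant libraries were transcribed with T7 RNA polymerase at 37°C for 5 hours, then given 15 min with DNase I before an EDTA stop, and they cleaved during both steps. Reverse transcription with template switching preceded Illumina sequencing. Relative activity divides a variant's cleaved/total read fraction by the unmutated ribozyme's. At least 5 reads were required per variant, and three batches were averaged.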

Variant | self-cleavage
UAACAGGGGGCCACAGCGGAAGCGUUCACGUCGCAGCCCCUGCCAGAUUCUGGUGAAUCUGCGAAUUCCGCUGUGCAUCUC | 0.35
UAACAGGGGGCCACAGCGGAAGCGUUCACGUCGCAGCCCCUGUCAGAUCCCGGUGAAUCUGCGAAUUCUGCUGUAUUUCUC | 0.16
UAACAGGGGGCCACAGCGGAAGCGUUCACGUCGCAGCCCCUGUCAGAUACUGGUAAAUCUGCGAAUUCUGCUGUAUAUCUC | 0.28
UAACAGGGGGCCACAGCGGAAGCGUUCACGUCGCAGCCCCUGUCAGAUUCCGGUGAAUCCGCGAAUUCUGCUGUAUAUCUC | 0.24
UAACAGGGGGCCACAGCGGAAGCGUUCACGUCGCAGCCCCUGUCAGAUUCCGGUGAAUCCGCGAAUUCCGCAGUAUAUCUC | 0.25
UAACAGGGGGCCACAGCGGAAGCGUUCACGUCGCAGCCCCUGUCAGACUCUGGUGACUCUGCGAAUUCUGCUGUAUAUCUC | 0.19
UAACAGGGGGCCACAGCGGAAGCGUUCACGUCGCAGCCCCUGCCAGAUACUGGUGAAUCUGCGAAUUCUGCUGUAUGUCUC | 0.1
UAACAGGGGGCCACAGCGGAAGCGUUCACGUCGCAGCCCCUGCCAGAUCCUGGUGAAUCUGCGAAUUCUGCUGUAUAUCUU | 0.15
UAACAGGGGGCCACAGCGGAAGCGUUCACGUCGCAGCCCCUGUCAGAUGCUGGUGAAUCUGCGAAUUCUGCUGCAUAUCUC | 0.27
UAACAGGGGGCCACAGCGGAAGCGUUCACGUCGCAGCCCCUGUCAGAUUCAGGUGGAUCUGCGGAUUCCGCUGCAUAUCUC | 0.37
UAACAGGGGGCCACAGCGGAAGCGUUCACGUCGCAGCCCCUGUCAGAUUCAGGUGAAUCUGCGAAUACUGCCGUAUAUCUC | 0.24
UAACAGGGGGCCACAGCGGAAGCGUUCACGUCGCAGCCCCUGUCAGACUCCGGUGAAUCUGCGAAUUUUGCUGUAUAUCUC | 0.29
UAACAGGGGGCCACAGCGGAAGCGUUCACGUCGCAGCCCCUGCCAGAAUCUGGCGAAUCUGCGAAUUCUGCUGUUUAUCUC | 0.18
UAACAGGGGGCCACAGCGGAAGCGUUCACGUCGCAGCCCCUGCCAGAUUCUGGUGAAUCUGCGAAUUCUGCUGUAUAUCCC | 0.56
UAACAGGGGGCCACAGCGGAAGCGUUCACGUCGCAGCCCCUGUCAGACUCUGGUGAAUCUGCGAAUUCUGCUGUAUAUCAC | 0.46
UAACAGGGGGCCACAGCGGAAGCGUUCACGUCGCAGCCCCUGUCAGAUUCCGGUGAAUCUGCGAAUUCUGUUGUAUAUCUC | 0.38
UAACAGGGGGCCACAGCGGAAGCGUUCACGUCGCAGCCCCUGUCAGAAUCUGGUGAAUCUACGAAUUCUGCUGUAUAUCUC | 0.12
UAACAGGGGGCCACAGCGGAAGCGUUCACGUCGCAGCCCCUGUCAGACUCCGGUGGAUCUGCGAAUGCUGCUGUAUAUCUC | 0.2
UAACAGGGGGCCACAGCGGAAGCGUUCACGUCGCAGCCCCUGUCAGAUUCAGGUGAAUCUGCGAAUUCUGCUGUACAUCUC | 0.92
UAACAGGGGGCCACAGCGGAAGCGUUCACGUCGCAGCCCCUGUCAGAUUCAGGUGAAUCUGCGAAUUCUGCUGUAGAUCUC | 0.79
UAACAGGGGGCCACAGCGGAAGCGUUCACGUCGCAGCCCCUGUCAGACUCUGGUGAAUCUGCGAAUUCUGCUGUAUAUCUG | 0.57
UAACAGGGGGCCACAGCGGAAGCGUUCACGUCGCAGCCCCUGUCAGAUCCUGGUGAAUCUGCGGAUUCUGCUGUAUAACUC | 0.17
UAACAGGGGGCCACAGCGGAAGCGUUCACGUCGCAGCCCCUGCCAGAUUUUGGUGAAUCUGCGAAUUCUGCCGUUUAUCUC | 0.2

Variant | self-cleavage
UAACAGGGGGCCACAGCGGAAGCGUUCACGUCGCAGCCCCUGUCAGACUCUGGGGAAUCCGCGAAUUCUGCUGUAUGUCUC | 0.15
UAACAGGGGGCCACAGCGGAAGCGUUCACGUCGCAGCCCCUGCCAGAUUCUGGUGAAUCUGCGUAUUCUGCUGUAUAUCUC | 0.38
UAACAGGGGGCCACAGCGGAAGCGUUCACGUCGCAGCCCCUGUCAGAUUCAGGUGAAUCUGCGAAUUCUGCUGUAUAUUUC | 1.02
UAACAGGGGGCCACAGCGGAAGCGUUCACGUCGCAGCCCCUGCCAGAUUCCGGUGAACCUGCGAAUUCUGCUGAAUAUCUC | 0.3
UAACAGGGGGCCACAGCGGAAGCGUUCACGUCGCAGCCCCUGUCAGAAUCUGGUGAAUCUGCGAAUUCUGCUGUAUUUCUC | 0.19
UAACAGGGGGCCACAGCGGAAGCGUUCACGUCGCAGCCCCUGUCAGAUCCUGGUGAAUCUGCGGAAUCUGCCGUAUAUCUC | 0.11
UAACAGGGGGCCACAGCGGAAGCGUUCACGUCGCAGCCCCUGUCAGAUCCUGGUGAAUCUGCGAAUUCUGCUGUAUACCUU | 0.09
UAACAGGGGGCCACAGCGGAAGCGUUCACGUCGCAGCCCCUGCCAGAUUCUGGUGAAUCUGCGAAUCCUGCUGUAUAACUC | 0.1
UAACAGGGGGCCACAGCGGAAGCGUUCACGUCGCAGCCCCUGUCAGAUACUGGUGAAUCUGCGAAUUCUGGUGUAUACCUC | 0.15
UAACAGGGGGCCACAGCGGAAGCGUUCACGUCGCAGCCCCUGUCAGAUUCAGGUGGAUCUGCGAGAUCUGCUGCAUAUCUC | 0.28
UAACAGGGGGCCACAGCGGAAGCGUUCACGUCGCAGCCCCUGUCAGAUUCAGGUGAAUCUGCGAAUUCUGCCGUAUAUCUC | 0.35
UAACAGGGGGCCACAGCGGAAGCGUUCACGUCGCAGCCCCUGCCAGAUUCUGGCGUAUCUGCGAAUUCUGCUGUAUAUCUC | 0.15
UAACAGGGGGCCACAGCGGAAGCGUUCACGUCGCAGCCCCUGUCAGACUCAGGUGAAUCUGCGAAUUCUGCUGUUCAUCUC | 0.15
UAACAGGGGGCCACAGCGGAAGCGUUCACGUCGCAGCCCCUGUCAGACUCUGGUGGAUCCGCGAAUUCUGCUGUAUAUCUC | 0.11
UAACAGGGGGCCACAGCGGAAGCGUUCACGUCGCAGCCCCUGUCAGAUCCCGGUGAAUCUGCGAAUUCUGCUGAAUAUCUC | 0.2
UAACAGGGGGCCACAGCGGAAGCGUUCACGUCGCAGCCCCUGCCAGAUUCUGGGGUAUCUGCGAAUUCUGCUGUAUUUCUC | 0.15
UAACAGGGGGCCACAGCGGAAGCGUUCACGUCGCAGCCCCUGCCAGAUACUGGCGAAUCUGCGAAUCCUGCUGUAUAUCUC | 0.11
UAACAGGGGGCCACAGCGGAAGCGUUCACGUCGCAGCCCCUGGCAGAUUCAGGUGAAUCUGCGAAUUCUGCUGUAUAUCUC | 0.02
UAACAGGGGGCCACAGCGGAAGCGUUCACGUCGCAGCCCCUGUCAGAUCCCGGUGAAUCUGCGAAUACUGCUGUAUGUCUC | 0.19
UAACAGGGGGCCACAGCGGAAGCGUUCACGUCGCAGCCCCUGCCAGAUUCUGGUGAAUCUGCGAAUUCUGCUGUCUAUCUC | 0.37
UAACAGGGGGCCACAGCGGAAGCGUUCACGUCGCAGCCCCUGCCAGAUUCUGGUGAGUCAGCGAAUUCUGCUGUAUAUCUC | 0.2
UAACAGGGGGCCACAGCGGAAGCGUUCACGUCGCAGCCCCUGUCAGAUUCCGGUGAAUCUGCGAAUUUUGCUGUAUAUCUC | 0.43
UAACAGGGGGCCACAGCGGAAGCGUUCACGUCGCAGCCCCUGUCAGACUCUGGUGAAUCUGCGAAUUCUGCGGAAUAUCUC | 0.11

Variant | self-cleavage
UAACAGGGGGCCACAGCGGAAGCGUUCACGUCGCAGCCCCUGCCAGAUUCUGGUGAAUCUGCGAAUUCUGCUGUAUACCUC | 0.32
UAACAGGGGGCCACAGCGGAAGCGUUCACGUCGCAGCCCCUGUCAGAUCCUGGUGAAUCAGCGAGUUCUGCUGUAUAUCUC | 0.11
UAACAGGGGGCCACAGCGGAAGCGUUCACGUCGCAGCCCCUGUCAGACUCCGGUGUAUCUGCGGAUUCUGCUGUAUAUCUC | 0.12
UAACAGGGGGCCACAGCGGAAGCGUUCACGUCGCAGCCCCUGUCAGACCCUGGUGAAUCUGCGAAUUCUGCUGUAUAUCUC | 0.42
UAACAGGGGGCCACAGCGGAAGCGUUCACGUCGCAGCCCCUGUCAGAUCCUGGUGAAUCUGCGAAUUCUGCUGUUUAUCUC | 0.26
UAACAGGGGGCCACAGCGGAAGCGUUCACGUCGCAGCCCCUGUCAGAUUCAGGCGAAUCUGCGAAUUCUGCCGUAUACCAC | 0.33
UAACAGGGGGCCACAGCGGAAGCGUUCACGUCGCAGCCCCUGUCAGAUCCUGGUGAAUCUGCGAGUUCUGCUGUAUAUCUC | 0.14
UAACAGGGGGCCACAGCGGAAGCGUUCACGUCGCAGCCCCUGUCAGAUUCCGGUGAAUCUGCGAAUACUGCUGUAUAUCUC | 0.34
UAACAGGGGGCCACAGCGGAAGCGUUCACGUCGCAGCCCCUGCCAUGUUCUGGUGAAUUUGCGAAUACUGCUGUAUAUCUC | 0.08
UAACAGGGGGCCACAGCGGAAGCGUUCACGUCGCAGCCCCUGCCAGAUUCUGGUGAAUCUGCGAAUUCUGCUGUAUUUCUC | 0.34
UAACAGGGGGCCACAGCGGAAGCGUUCACGUCGCAGCCCCUGUCAGAUACCGGUGAAUCUGCGAAUUCUGCUGUAUAUCUC | 0.6
UAACAGGGGGCCACAGCGGAAGCGUUCACGUCGCAGCCCCUGUCAGAUUCCGGUGAAUCUGCGAUUUCUGCUGUAUAUCCC | 0.46
UAACAGGGGGCCACAGCGGAAGCGUUCACGUCGCAGCCCCUGUCAGAUCCUGGUGAAUCUGCAAAUUCUGCUGUAUAUCUC | 0.19
UAACAGGGGGCCACAGCGGAAGCGUUCACGUCGCAGCCCCUGUCAGAUCCUGGCGAAUCUGCGAAUCCUGCUAUAUAUCUC | 0.12
UAACAGGGGGCCACAGCGGAAGCGUUCACGUCGCAGCCCCUGUCAGACUCUGGUGUAUCUGCGAGUUCUGCUGUAUAUCUC | 0.08
UAACAGGGGGCCACAGCGGAAGCGUUCACGUCGCAGCCCCUGUCAGAUCCUGGUGAAUCUGCGAGUUCUGCUGUAUAUCAC | 0.11
UAACAGGGGGCCACAGCGGAAGCGUUCACGUCGCAGCCCCUGCCAGAUUCUGGUGAAUCUGCGAGGUCUGCUGUAUAUCUC | 0.08
UAACAGGGGGCCACAGCGGAAGCGUUCACGUCGCAGCCCCUGCCAGAUUCUGGUGAAUCUGCCAAAUCUGCUGUAUAUCUC | 0.13
UAACAGGGGGCCACAGCGGAAGCGUUCACGUCGCAGCCCCUGUCAGACUAUGGUUAAUCUGCGAAUUCUGCUGUAUAUCUC | 0.13
UAACAGGGGGCCACAGCGGAAGCGUUCACGUCGCAGCCCCUGUCAGACUCCGGUGUAUCUGCGAAUUCUGCUGUAUAUCUC | 0.22
UAACAGGGGGCCACAGCGGAAGCGUUCACGUCGCAGCCCCUGUCAGACUCUGGUGAAUCUGCGAAUUCUGCUGAAUAUCUC | 0.75
UAACAGGGGGCCACAGCGGAAGCGUUCACGUCGCAGCCCCUGCCAGAUUCUGGCGAAUCUGCGAAUACUGCUGUAUAUCUC | 0.04
